Publication PMC4336329 (PLoS ONE, 2015)
Out of some 310,000 compounds screened, about 14,000 (4.5%) showed an effect of 50% or more. Effects have a minus sign here. Some of the results follow.

Each compound was assayed against human ether-à-go-go-related gene (hERG) potassium channel (human, UniProt Q12809) (assay: primary screen, population patch clamp on CHO cells stably expressing hERG).
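Note: peak tail current of the secondary pulse compared with the same well before compound.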

Chain of human ether-à-go-go-related gene (hERG) potassium channel (Q12809 whole entry, looked up): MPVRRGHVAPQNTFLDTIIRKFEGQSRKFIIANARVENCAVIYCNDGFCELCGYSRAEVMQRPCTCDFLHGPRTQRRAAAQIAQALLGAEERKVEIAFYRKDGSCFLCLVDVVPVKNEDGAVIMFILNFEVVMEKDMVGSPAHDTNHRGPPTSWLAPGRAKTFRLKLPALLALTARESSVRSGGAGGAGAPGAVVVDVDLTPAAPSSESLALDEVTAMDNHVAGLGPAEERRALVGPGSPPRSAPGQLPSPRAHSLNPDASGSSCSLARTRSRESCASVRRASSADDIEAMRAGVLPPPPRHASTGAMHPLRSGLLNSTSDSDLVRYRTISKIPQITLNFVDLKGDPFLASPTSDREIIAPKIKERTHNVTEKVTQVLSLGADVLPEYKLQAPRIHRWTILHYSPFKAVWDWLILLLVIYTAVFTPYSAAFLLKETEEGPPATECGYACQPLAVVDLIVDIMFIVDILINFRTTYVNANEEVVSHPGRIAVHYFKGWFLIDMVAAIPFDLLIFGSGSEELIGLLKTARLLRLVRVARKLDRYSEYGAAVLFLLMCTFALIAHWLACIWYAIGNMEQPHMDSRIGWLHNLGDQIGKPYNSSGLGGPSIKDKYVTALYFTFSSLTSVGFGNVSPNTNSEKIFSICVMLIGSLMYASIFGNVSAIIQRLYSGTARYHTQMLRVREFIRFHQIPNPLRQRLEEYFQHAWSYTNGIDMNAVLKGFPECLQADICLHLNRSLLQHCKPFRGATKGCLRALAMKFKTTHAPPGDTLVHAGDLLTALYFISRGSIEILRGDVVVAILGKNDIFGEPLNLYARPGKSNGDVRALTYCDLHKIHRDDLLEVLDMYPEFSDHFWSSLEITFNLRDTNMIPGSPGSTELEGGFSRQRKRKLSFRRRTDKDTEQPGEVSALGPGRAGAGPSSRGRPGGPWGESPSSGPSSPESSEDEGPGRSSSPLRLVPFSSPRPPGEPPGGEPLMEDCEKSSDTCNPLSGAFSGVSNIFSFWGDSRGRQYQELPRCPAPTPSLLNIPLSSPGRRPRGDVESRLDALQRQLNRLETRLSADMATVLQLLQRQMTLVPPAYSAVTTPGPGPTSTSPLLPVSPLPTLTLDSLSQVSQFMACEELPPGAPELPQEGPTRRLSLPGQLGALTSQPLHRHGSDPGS

Structure (SMILES)	hERG current change (%, negative = inhibition) at 10uM
Cc1ccc(NC(=O)CCN2CCN(CCO)CC2)cc1Br.Cl	-15.7%
CC(=O)N1CCOc2ccc(S(=O)(=O)N3CCC(C)CC3)cc21	6.53%
CC1CC(C)CN(S(=O)(=O)c2ccc(NC(=O)CCN3C(=O)C4CC=CCC4C3=O)cc2)C1 (centres unmarked)	4.22%
CC1=CC(C)(C)N(C(=O)CSc2nnc(C)s2)c2ccc(C)cc21	-6.67%
CCOc1ccccc1CN1CCC(n2nccc2NC(=O)CCCc2ccccc2)CC1	-83.7%
CCN(CC)C(=O)CSc1nnc(-c2ccccc2)n1N	21.4%
COc1ccccc1Nc1nc(N)nc(CSC(=S)N2CCC(C)CC2)n1	-13.7%
CC(=O)Oc1ccc2cc(-c3nc4ccccc4n3C)c(=O)oc2c1	0.963%
Cn1c(=O)c2c(nc(CN3CCc4ccccc4C3)n2Cc2ccc(Cl)cc2)n(C)c1=O	0.125%
COc1ccccc1NC(=O)CCCCC(=O)Nc1ccccc1OC	7.88%
O=c1[nH]c2ccccc2cc1CN(Cc1ccco1)S(=O)(=O)c1ccc(F)cc1	18%
COC(=O)C1=C(c2ccc(S(C)(=O)=O)cc2)C[C@@H]2CC[C@H]1N2C(=O)NC(C)C	-49.8%
O=C(Nc1cc(Cl)ccc1N1CCOCC1)c1ccc(N2CCCCC2)c([N+](=O)[O-])c1	-6.63%
NC(=O)NC(CC(=O)NNC(=O)c1ccccn1)c1ccc(Cl)cc1 (centres unmarked)	11.7%
O=C(NN1C(=O)C2C3CCC(O3)C2C1=O)c1ccc(Cl)cc1 (centres unmarked)	6.47%
c1ccc(-c2nc(NC3CCCC3)c3ccccc3n2)cc1	20.5%
COc1ccc(C(=O)C(C)OC(=O)CCN2C(=O)C3CC=CCC3C2=O)cc1 (centres unmarked)	-6.72%
CC1CCN(C(=O)CCC(=O)Nc2nnc(C(F)(F)F)s2)CC1	30%
O=C(N/C(=C/c1cccc([N+](=O)[O-])c1)C(=O)N1CCOCC1)c1ccccc1Br	-7.05%
COc1ccc(/C=N/n2c(SC)nnc(C(C)(C)C)c2=O)c(OC)c1	6.24%
N=c1c(C(=O)NCc2ccccc2)cc2c(=O)n3ccccc3nc2n1CCCN1CCOCC1	-78.6%
COc1ccc(NC(=O)C2CCN(Cc3cnn(-c4ccccc4)c3-n3cccc3)CC2)cc1OC	-14%
Cc1oc(-c2ccccc2)nc1Cn1cccc1C1=NC(c2ccccc2)CO1 (centres unmarked)	5.29%
